# Measurements: PubChem BioAssay (Tox21)
# “And” between values parts separate entries of the source, which are not always exact repeats. Identical values can stand only once. The inconclusive results got no clear call from the source; some entries with a clear call stand among them for comparison. For some assays here: Potencies beside an inconclusive call are fits to weak or partial responses and may not hold up. Some structures have more than one record in an assay (separate samples or runs), and their calls can disagree. The source made the active and inactive calls. Unless noted, calls come from the whole dose curve; as a rule, active = well fitted curve in the direction sought with a large enough effect in the repeat runs; inconclusive = weak or mixed curves; inactive = no such curve, though single readings can be large; an effect the other way counts as inactive or inconclusive.
# How the values were obtained:
# [1] = qHTS RealTime-Glo MT Cell Viability Assay in HEK293 cells - 24 hour (AID 1224886); details: RealTime-Glo luminescence; series mostly up to 76.8 µM; note: nearly all actives have a fitted effect of over 50% in size
# How it was run: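 Quantitative high-throughput screen of the Tox21 10K library in HEK293: cells and RealTime-Glo reagents plated together, compound added at 5 h, luminescence monitored through 40 h at 37 C.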
# [2] = qHTS RealTime-Glo MT Cell Viability Assay in HEK293 cells - 8 hour (AID 1224887); details: RealTime-Glo luminescence; series mostly up to 76.8 µM; note: nearly all actives have a fitted effect of over 50% in size
# How it was run: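 600 HEK293 cells per well, dispensed already mixed with RealTime-Glo MT reagents. Compound dosing came 5 h later. The same wells were read for luminescence at 0, 8, 16, 24, 32 and 40 h of exposure at 37 C.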
# [3] = target: Estrogen receptor (Homo sapiens) (UniProt P03372); assay: qHTS assay to identify small molecule antagonists of the estrogen receptor alpha (ER-alpha) signaling pathway using the BG1 cell line in the presence of 0.1 nM 17-beta-estradiol (AID 1259244); details: VM7Luc4E2 (BG1) ERE-luciferase, antagonist mode, 0.1 nM E2, 22 h; series mostly up to 92.4 µM; note: nearly all actives have a fitted effect of over 50% in size
# How it was run: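 Reporter is a stably transfected luciferase under four estrogen responsive elements in VM7Luc4E2 cells expressing native full-length ER-alpha; inhibition of 0.1 nM (final) 17beta-estradiol-driven signal over 22 h is read by luminescence.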
# [4] = target: Estrogen receptor beta (Homo sapiens) (UniProt Q92731); assay: qHTS assay to identify small molecule antagonists of the estrogen receptor beta (ER-beta) signaling pathway (AID 1259378; active = well fitted inhibition curve with a large enough effect in the signal ratio in the repeat runs, not every such curve was filed as active; inconclusive = weak or mixed curves, or effect the other way; inactive = no such curve, though single readings can be large or run the other way; the % refers to the signal ratio; for activity, negative = inhibition: % is set by controls: 0 for no effect and ±100 for the full control effect); details: ER-beta-UAS-bla HEK293T, beta-lactamase FRET ratio, 16 h; activity, negative = inhibition: at 92.4 µM (top of the series) unless noted
# How it was run: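 ER-beta-UAS-bla HEK293T cells in 2% charcoal-stripped FBS medium treated with compound plus 1nM final 17-beta-estradiol for 16 hr at 37C. Beta-lactamase reporter read by FRET substrate fluorescence after 2 hours at room temperature.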
# [5] = qHTS assay to identify small molecule phospholipidosis (PLD) inducers (AID 1259344; active = well fitted curve in the direction sought with a large enough effect; inconclusive = small, poorly fitted or top-dose-only effect, or another doubt; inactive = no such curve, though single readings can be large; an effect the other way counts as inactive or inconclusive); details: HepG2 phospholipidosis, LipidTOX Red imaging, 24 h; series mostly up to 38.3 µM
# How it was run: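 Read-out is LipidTOX Red fluorescence (ex 595/em 615) imaged in HepG2 cells after 24 h compound exposure at 37 C, with Hoechst nuclear counterstain (ex 352/em 461) allowing per-cell normalisation.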
# [6] = qHTS assay to identify small molecule HDAC inhibitors (AID 1259364); details: HCT-116 HDAC-Glo I/II luminescence, 2 h; series mostly up to 92.4 µM;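 note: wild-type HCT-116 cells with endogenous class I/II HDAC activity; nearly all actives have a fitted effect of over 45% in size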
# How it was run: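 Quantitative high-throughput format: overnight-seeded HCT-116 cells got compounds for 2 hr at 37C; HDAC-Glo I/II reagent added, 30 min RT, luminescence measured.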
# [7] = qHTS assay to identify small molecule agonists of the sonic hedgehog signaling (Shh) pathway - cell viability counter screen (AID 1259366); details: NIH/3T3 Gli1-Luc viability, CellTiter-Fluor, 24 h; series mostly up to 92.4 µM; note: nearly all actives have a fitted effect of over 50% in size
# How it was run: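 NIH/3T3-derived 3T3 Gli1-Luc cells (stable Gli1-responsive firefly luciferase reporter) were seeded, rested 4 hr at 37 C/5% CO2, then exposed to compounds in DMSO for 24 hr; viability was read by CellTiter-Fluor fluorescence in the same wells.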
# [8] = qHTS assay to identify small molecule antagonists of the sonic hedgehog signaling (Shh) pathway - cell viability counter screen (AID 1259367); details: NIH/3T3 Gli1-Luc viability, CellTiter-Fluor, 24 h; series mostly up to 92.4 µM; note: nearly all actives have a fitted effect of over 55% in size
# How it was run: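 Fluorescence read-out (CellTiter-Fluor, 1 hr at 37C) taken after 23 hr compound treatment of 3T3 Gli1-Luc cells stimulated with conditioned medium. Cells were seeded at 2,000 per well and pre-incubated 4 hr.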
# [9] = qHTS assay to identify small molecule antagonists of the sonic hedgehog signaling (Shh) pathway (AID 1259369; calls by dose curve; note: nearly all actives have a fitted effect of over 45% in size); details: NIH/3T3 Gli1-Luc reporter, Shh antagonist, luminescence 24 h; series mostly up to 92.4 µM
# How it was run: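 Stable Gli1-Luc reporter NIH/3T3 clone; quantitative HTS in stimulated mode with conditioned medium. Luminescence measured after 24hr compound treatment at 37 C.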
# [10] = target: Estrogen receptor beta (Homo sapiens) (UniProt Q92731); assay: qHTS assay to identify small molecule agonists of the estrogen receptor beta (ER-beta) signaling pathway (AID 1259377; active = well fitted activation curve with a large enough effect in the signal ratio in the repeat runs, not every such curve was filed as active; inconclusive = weak or mixed curves, or effect the other way; the % refers to the signal ratio); details: ER-beta-UAS-bla HEK293T, beta-lactamase FRET ratio, 16 h; activation: at 92.4 µM (top of the series) unless noted
# How it was run: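 ER-beta-UAS-bla HEK293T (GripTite) cells carrying a UAS-driven beta-lactamase reporter, in medium with 2% charcoal-stripped FBS, were exposed to compounds for 16 hr at 37C; LiveBLAzer B/G FRET substrate was then added and fluorescence read after 2 hours at room temperature.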
# Potency is the fitted concentration of half-maximal effect; tags give direction and shape of the fitted curve or compound fluorescence and quenching.
# Chain of UniProt Q92731 (Q92731 whole entry, looked up): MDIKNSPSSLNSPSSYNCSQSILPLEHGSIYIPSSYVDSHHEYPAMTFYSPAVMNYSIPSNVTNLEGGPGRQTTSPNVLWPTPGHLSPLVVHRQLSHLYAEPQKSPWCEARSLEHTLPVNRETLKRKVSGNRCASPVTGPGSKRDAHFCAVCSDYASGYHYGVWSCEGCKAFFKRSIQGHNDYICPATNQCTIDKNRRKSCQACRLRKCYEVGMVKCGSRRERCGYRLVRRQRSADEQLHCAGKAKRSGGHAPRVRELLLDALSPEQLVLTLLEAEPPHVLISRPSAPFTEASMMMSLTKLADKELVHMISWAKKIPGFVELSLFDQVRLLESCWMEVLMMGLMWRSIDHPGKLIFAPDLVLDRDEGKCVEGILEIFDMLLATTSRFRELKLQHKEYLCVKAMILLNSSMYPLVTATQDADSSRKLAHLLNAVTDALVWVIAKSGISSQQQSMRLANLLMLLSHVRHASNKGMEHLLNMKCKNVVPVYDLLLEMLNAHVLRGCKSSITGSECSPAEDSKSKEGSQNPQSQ
# Chain of UniProt P03372 (P03372 whole entry, looked up): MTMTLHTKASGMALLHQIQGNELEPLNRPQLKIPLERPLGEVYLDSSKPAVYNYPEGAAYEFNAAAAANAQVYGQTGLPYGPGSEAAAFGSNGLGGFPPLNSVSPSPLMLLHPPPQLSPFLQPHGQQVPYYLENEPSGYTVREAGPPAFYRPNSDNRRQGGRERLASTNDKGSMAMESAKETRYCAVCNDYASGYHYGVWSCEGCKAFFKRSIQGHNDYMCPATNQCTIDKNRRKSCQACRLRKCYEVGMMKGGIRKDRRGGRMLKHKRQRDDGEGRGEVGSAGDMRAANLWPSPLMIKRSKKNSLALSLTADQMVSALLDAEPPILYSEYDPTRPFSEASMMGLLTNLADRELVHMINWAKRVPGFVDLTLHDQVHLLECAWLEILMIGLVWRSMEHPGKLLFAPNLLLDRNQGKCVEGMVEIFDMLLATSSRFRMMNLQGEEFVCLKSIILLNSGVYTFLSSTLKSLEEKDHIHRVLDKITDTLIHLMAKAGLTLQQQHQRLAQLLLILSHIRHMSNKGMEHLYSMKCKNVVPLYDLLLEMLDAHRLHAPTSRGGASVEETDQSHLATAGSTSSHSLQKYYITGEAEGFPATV
Compound,Potency [1],Potency [2],Potency [3],Potency [4],"activity, negative = inhibition [4]",Potency [5],Potency [6],Potency [7],Potency [8],Potency [9],Potency [10]
CC(C)Oc1cc(-n2nc(C(C)(C)C)oc2=O)c(Cl)cc1Cl,"inconclusive: 38.3 µM [cytotoxic, partial curve]","inconclusive: 34.2 µM [cytotoxic, partial curve] and inconclusive: 49 µM [cytotoxic, partial curve]","inconclusive: 67.6 µM [inhibitor, partial curve]","inconclusive: 61.1 µM [inhibitor, single point]",inconclusive: -30.4%,–,–,–,–,–,–
CCCCOC(=O)c1ccccc1C(=O)OCc1ccccc1,"inconclusive: 27.5 µM [cytotoxic, partial curve, poor fit] and inconclusive: 54.9 µM [cytotoxic, single point]","inconclusive: 12.3 µM [cytotoxic, partial curve] and inconclusive: 54.9 µM [cytotoxic, single point]",–,–,–,"inconclusive: 25.1 µM [activator, partial curve, poor fit]",active: 17.2 µM,"inconclusive: 68.6 µM [cytotoxic, single point]",active: 48.6 µM,active: 19.3 µM,–
CC(C)CCCCCCCOP(=O)(Oc1ccccc1)Oc1ccccc1,"inconclusive: 31 µM [cytotoxic, partial curve]","inconclusive: 31 µM [cytotoxic, partial curve, poor fit]",–,–,inconclusive: -38.2%,–,–,–,–,"inconclusive: 68.9 µM [inhibitor, single point]","inconclusive: 2.74 µM [falling, single point]"
